From the RNAGym collection of RNA variant scans (doi:10.1093/nar/gkz1192)
The source gives no read counts; variants with many changes may rest on few reads.

B1: CPEB3 Ribozyme (parent)
chain: UAACAGGGGGCCACAGCAGAAGCGUUCACGUCGCAGCCCCUGUCAGAUUCUGGUGAAUCUGCGAAUUCUGCUGUAUAUCUC

Variants of: B1
Assay: self-cleavage, relative activity (ratio to wild type); higher = more cleavage; in vitro, sequencing
Method in brief: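 Relative activity compares each variant's cleaved/total read fraction with that of the unmutated ribozyme. To get these fractions, barcoded CPEB3 ribozyme libraries from rounds of error-prone PCR were transcribed with T7 RNA polymerase for 5 hours at 37°C and then given 15 min of DNase I treatment before EDTA was added. The RNAs were reverse transcribed with template switching and sequenced on Illumina, and DNA sequencing linked barcodes to variants. A minimum of 5 reads applied, and three batches were averaged.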

Variant | self-cleavage
A3C A15G U25C U58C U67C A77U | 0.31
A3C A15U A20G U54A A75G | 0.65
A3C A15U C23U U43C U74C A75G | 0.06
A3C A18G A47G U69A A75G U76A | 0.5
A3C A18G U41C U48C U69A | 0.22
A3C A18U U26A C29G U80C | 0.3
A3C A18U U26C A45U | 0.4
A3C A18U U31A A45G U80C | 0.69
A3C A20G A21G | 0.57
A3C A20G U25C A28G A45U A56G | 0.22
A3C A20G U48C U60C U72C | 0
A3C A20U C23U U72A A77G | 0.22
A3C A20U U51A U69A U78A | 0.26
A3C A20U U60C U72A A77G | 0.26
A3C A21G A28G A35G G61A U74A A77G | 0.97
A3C A21G G33C | 0.09
A3C A21G U54C U78C | 0.79
A3C A21U U25C U41C A45G A56U | 0.07
A3C A28G A35U | 0.32
A3C A28G A47G U66A U69C U72A A77U | 0.11
A3C A28G A77G | 0.85

Variant | self-cleavage
A3C A28G G42A A57G C68A | 0.24
A3C A28G U31C G33A U60A U78A | 0.04
A3C A35G U51C U54A A57G | 1.27
A3C A35U C38U | 0.75
A3C A57C U72A | 0.27
A3C C4G A45C U51A C62U U74C | 0.12
A3C C4U A5G G30U | 0.17
A3C C11U U41A G63C | 0.5
A3C C14A A20G C27A C38U | 0.36
A3C C29U U43A A64G U76G | 0.56
A3C C32U A35G | 0.45
A3C C34A C38A | 0.4
A3C C34U C39U A45U U51C U67C A77U | 0.18
A3C C37G U67C U72C | 0.27
A3C C37U C50G U76A | 0.38
A3C C40U U49C U69C C71G U72C | 0.05
A3C G9A A35G C38A G61U U69C | 0.31
A3C G10A A21U U41A U43C U60C | 0.02
A3C G16A A64G A65G U66C U67A U76A | 0.1
A3C G19A A45C U48C U80A | 0.57
A3C G22A U26G A28G C39U U41A | 0.52

Variant | self-cleavage
A3C G42A A64G | 0.2
A3C G42A U48A U72C U74C U80C | 0
A3C U25C A35G A47G U66C U67G | 0.05
A3C U25C G30A U31C A64U U67A U78C | 0.08
A3C U25C U72C U76C | 0.27
A3C U26A A35G U43A U67A | 0.17
A3C U26A U49C | 0.39
A3C U26C A28U G33A U60A U67A U69A | 0.07
A3C U26C C29A U49C | 0.09
A3C U26C C34A A35U A45G U51A G63U | 0.15
A3C U26C U43C | 0.98
A3C U31A U43A C44U U48C | 0.08
A3C U31C A47U U72C U78G | 0.23
A3C U31C U43C A64G U67C A77G | 0.17
A3C U41C C81A | 1.17
A3C U41C U48A | 0.44
A3C U43C A75G U80C | 0.52
A3C U43C U67C C71U | 0.17
A3C U49C A57G | 0.34
A3C U49C A77G | 0.53
A3C U51C A77G | 1.22

Variant | self-cleavage
A3C U51C U54A U60A U72A | 0.99
A3C U58C C62G | 0.22
A3G A5C A13G U41A U48C A64U | 0.21
A3G A5C A13U U26C C39U | 0.35
A3G A5C G16U A20G C23U U41C | 0.12
A3G A5C U26C U67C U80C | 0.36
A3G A5C U31C U80C | 0.76
A3G A5G A13G U26C | 0.2
A3G A5G A13U A20G U69C | 0.41
A3G A5G A21G U26C C27A A47G U48C | 0.88
A3G A5G A21G U31A A45C A64C | 0.07
A3G A5G A21G U48C A64G | 0.47
A3G A5G A35U U69G U78C | 0.27
A3G A5G A56G U60C A65G | 0.58
A3G A5G A64G | 0.52
A3G A5G A77U U80C | 0.71
A3G A5G C12A A13G A57G U72C | 0.32
A3G A5G C12U U31A A65G U67C A75G | 0.13
A3G A5G C23U A65G U69C U78C | 0.17
A3G A5G C23U U69C A75C U78C | 0.08
